{"source": "the supplement of paper PMC8728848", "assay_in_all_cases": "glycan array binding signal (z-score within array); higher = stronger binding", "details_in_all_cases": "glycan notation: IUPAC condensed, linker removed", "key": {"[1]": {"system": "Gal3S(b1-4)GlcNAc6S", "how_it_was_run": "(§1)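 Arrays were curated from the Consortium for Functional Glycomics database, 3228 in total, and kept only where the protein sequence was available. Binding is expressed as a within-array Z-score. This score was averaged across arrays of the same protein sequence at different concentrations or buffers and across linkers, and negative values can be read as non-binding.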"}, "[2]": {"system": "Gal3S(b1-4)GlcNAc", "how_it_was_run": "as §1"}, "[3]": {"system": "Gal3S(b1-4)[Fuc(a1-3)]Glc6S", "how_it_was_run": "as §1"}, "[4]": {"system": "Gal3S(b1-4)[Fuc(a1-3)]GlcNAc", "how_it_was_run": "as §1"}, "[5]": {"system": "Gal3S(b1-4)[Fuc(a1-3)]Glc", "how_it_was_run": "as §1"}}, "note": "Many of the other results were omitted from the sample, so the strongest signals are more common in it than they were.", "data": [{"substance": "Galectin-8 C-terminal CRD (Homo sapiens) (chain not printed)", "values": [{"measurement": "glycan array binding signal (z-score)", "setting": "[1]", "result": 0.562}]}, {"substance": "H-Ficolin (Homo sapiens) (chain not printed)", "values": [{"measurement": "glycan array binding signal (z-score)", "setting": "[1]", "result": 0.307}]}, {"substance": "STIM-3 (Mus musculus) (chain not printed)", "values": [{"measurement": "glycan array binding signal (z-score)", "setting": "[2]", "result": -0.193}]}, {"substance": "FGF2 (chain not printed)", "values": [{"measurement": "glycan array binding signal (z-score)", "setting": "[3]", "result": 1.88}, {"measurement": "glycan array binding signal (z-score)", "setting": "[4]", "result": -0.77}]}, {"substance": "Siglec-2 (Homo sapiens) (chain not printed)", "values": [{"measurement": "glycan array binding signal (z-score)", "setting": "[5]", "result": -0.071}]}]}
